# Source: article PMC4336329 (PLoS ONE, 2015)
# Out of some 310,000 compounds screened, about 14,000 (4.5%) showed an effect of 50% or more. The effect is printed as a negative number. The list shows a part of the results. Where a SMILES comes first, the peptide text is derived from it.
# Target: human ether-à-go-go-related gene (hERG) potassium channel (human, UniProt Q12809)
# Experiment: primary screen, population patch clamp on CHO cells stably expressing hERG
# 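Note: peak tail current of the secondary pulse compared with the same well before compound.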
# Sequence of human ether-à-go-go-related gene (hERG) potassium channel (Q12809 whole entry, looked up): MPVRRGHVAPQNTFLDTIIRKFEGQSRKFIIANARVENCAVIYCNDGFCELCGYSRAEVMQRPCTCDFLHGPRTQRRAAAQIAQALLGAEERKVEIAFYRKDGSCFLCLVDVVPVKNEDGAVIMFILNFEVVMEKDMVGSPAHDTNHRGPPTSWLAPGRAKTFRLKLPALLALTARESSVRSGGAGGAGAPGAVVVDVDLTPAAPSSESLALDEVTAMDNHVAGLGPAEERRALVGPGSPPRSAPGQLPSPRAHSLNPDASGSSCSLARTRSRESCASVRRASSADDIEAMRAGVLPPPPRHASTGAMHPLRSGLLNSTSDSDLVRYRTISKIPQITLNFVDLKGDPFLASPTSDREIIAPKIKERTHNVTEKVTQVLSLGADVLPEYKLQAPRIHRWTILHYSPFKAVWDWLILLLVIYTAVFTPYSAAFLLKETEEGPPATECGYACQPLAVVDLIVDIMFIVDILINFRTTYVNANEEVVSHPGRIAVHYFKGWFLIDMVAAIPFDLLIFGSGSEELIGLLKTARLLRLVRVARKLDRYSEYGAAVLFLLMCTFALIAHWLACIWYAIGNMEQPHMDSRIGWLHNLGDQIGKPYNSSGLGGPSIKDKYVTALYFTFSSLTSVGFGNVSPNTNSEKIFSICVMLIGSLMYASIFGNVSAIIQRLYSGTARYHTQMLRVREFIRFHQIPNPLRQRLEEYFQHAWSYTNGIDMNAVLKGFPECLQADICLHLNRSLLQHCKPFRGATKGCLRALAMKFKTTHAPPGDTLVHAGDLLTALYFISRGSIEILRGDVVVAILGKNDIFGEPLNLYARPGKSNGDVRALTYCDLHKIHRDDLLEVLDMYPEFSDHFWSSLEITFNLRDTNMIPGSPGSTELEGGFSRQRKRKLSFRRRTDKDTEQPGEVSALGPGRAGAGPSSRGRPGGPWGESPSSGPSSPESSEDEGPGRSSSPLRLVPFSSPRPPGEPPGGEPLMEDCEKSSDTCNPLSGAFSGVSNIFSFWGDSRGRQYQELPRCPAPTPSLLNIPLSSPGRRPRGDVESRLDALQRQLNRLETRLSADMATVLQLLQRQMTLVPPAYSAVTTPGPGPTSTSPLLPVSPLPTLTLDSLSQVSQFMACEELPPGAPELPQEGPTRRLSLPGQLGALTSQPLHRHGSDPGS
row,SMILES,"hERG current change (%, negative = inhibition) at 10uM [%]"
1,CCOC(=O)c1nn(-c2ccccc2Cl)c(=O)cc1OCC(=O)Nc1cccc(OC)c1,18.9
2,Cc1ccc(F)c(NC(=O)CCOc2ccccc2C)c1,-4.52
3,Cc1cc(=O)oc2cc(NC(=O)c3cc(F)ccc3F)ccc12,5.23
4,COC(=O)c1[nH]c2ccc(Br)cc2c1NC(=O)CN1CCCCC1CCO (stereo not drawn),-2.6
5,Cc1nc2ccccc2n1CCC(=O)Nc1cccc(F)c1,-6.53
6,CCn1cc(C(=O)NC(C)C23CC4CC(CC(C4)C2)C3)cn1 (stereo not drawn),-11.5
7,c1csc(-c2nnc(N3CCOCC3)c3ccccc23)c1,-32.1
8,CC(C)CN1CCN(Cc2cccc3c2OCO3)CC1CCO (stereo not drawn),-1.45
9,Cc1cc2ncn(S(=O)(=O)N3CCCCC3)c2cc1C,5.63
10,CCN1CCN(c2ncc(C(=O)Nc3cc(Cl)ccc3OC)c3ccccc23)CC1,-61.5
11,Cc1ccc(OCCCN2CCOCC2)c([N+](=O)[O-])c1.O=C(O)C(=O)O,-12
12,COC(=O)c1ccc(N2CCN(c3ccccc3)CC2)c(NC(=O)C2CC2)c1,-35.6
13,C=CCOCCn1[nH]c2ccccc2c1=O,4.75
14,O=C(Cn1cc([N+](=O)[O-])cn1)N1CCc2ccccc21,0.639
15,COc1cc(CC(=O)Nc2cccc(SC)c2)cc(OC)c1OC,24.6
16,Cl.Nc1nc(N2CCCCC2)nc2ccccc12,-45.8
17,N#CC1=C(N)N2C(=C(C#N)C1c1ccc(Br)cc1)Nc1ccccc12 (stereo not drawn),11.3
18,O=C(CCNC(=O)OCc1ccccc1)NC1CCCCCC1,5.67
19,Cc1ccc(NC(=O)c2cnn(-c3ccccc3)c2NC(=O)c2ccco2)cc1,2.02
20,COc1ccc(NS(=O)(=O)c2ccc(SC)cc2)c(OC)c1,-7.12
21,Cc1cccc(N(C)S(=O)(=O)c2c(C)[nH]c(C)c2C(=O)N2CCCC2)c1,10.8
22,COc1ccc(-n2ccc(=O)c3c2CCCC3=O)cc1,13.5

row,SMILES,"hERG current change (%, negative = inhibition) at 10uM [%]"
1,CN1CCCC(OC(=O)c2ccc(C#N)cc2)C1.Cl (stereo not drawn),1.22
2,C=CCn1c(SC(C)C(=O)NCCC2=CCCCC2)nc2ccccc2c1=O (stereo not drawn),-37.9
3,Cc1ccc(O)c(-c2cc(C(=O)Nc3ccc(S(=O)(=O)Nc4nc(C)cc(C)n4)cc3)[nH]n2)c1,-23.1
4,O=C1c2cccc3cccc(c23)C(=O)N1CCCN1CCN(c2ccc(F)cc2)CC1,-69.2
5,CN1CCC(N(C)CC(=O)Nc2ccc3c(c2)OC(F)(F)O3)CC1.O=C(O)C(=O)O,-13.9
6,Cc1onc(-c2ccccc2Cl)c1C(=O)NCc1ccc(F)cc1,10.6
7,COc1ccc(Cl)cc1Nc1nc2ccc(C)cc2n2cnnc12,18.7
8,Cc1ccc2c(CC(=O)OC(C)C(=O)NCc3ccc4c(c3)OCO4)coc2c1 (stereo not drawn),9.23
9,O=C1N(Cc2cccc(Cl)c2)C[C@@H]2C[C@@H](c3ccco3)N3CCC[C@@]123,-25.9
10,CCOC(=O)c1ccc(-c2ccc(/C=N/NC(=O)CN(c3cccc(C)c3)S(C)(=O)=O)o2)cc1,2.43
11,CNc1snc(C)c1C(=O)OCC(=O)c1ccc(OC)c(F)c1,12.2
12,COc1ccc(-n2c(Cc3cccc([N+](=O)[O-])c3)nc3ccccc3c2=O)cc1,-69.4
13,CCOc1ccc2nc(SC3CC(=O)N(c4cccc(OC)c4)C3=O)sc2c1 (stereo not drawn),13.1
14,Clc1ccc(OCc2nc(-c3ccncc3)no2)cc1,4.68
15,Cc1cc2oc(=O)cc(CN(C)Cc3ccc(OC(F)F)cc3)c2cc1Cl,22.7
16,O=C(NNc1ccc(Cl)nn1)c1ccc(Cl)cc1,-10
17,O=S(=O)(Nc1ncn[nH]1)c1ccc2ccccc2c1,5.61
18,COCCNC(=O)CSc1ccccc1C(=O)NCC1CCCCC1,17.4
19,O=C(COc1ccccc1)Nc1nnc(S(=O)(=O)N2CCCC2)s1,8.58
20,N#C/C(=C\c1ccc(Cl)cc1)c1nc2ccccc2o1,1.26
21,CSCCC(NC(=O)c1ccccc1Cl)C(=O)N1CCN(c2ccccn2)CC1 (stereo not drawn),-35.2
22,c1ccc(CN2OCC3Cn4c(nc5ccccc54)C32)cc1 (stereo not drawn),22.5

row,SMILES,"hERG current change (%, negative = inhibition) at 10uM [%]"
1,Cc1nc(NC(=O)/C=C/c2ccc(F)cc2)sc1C(=O)N(C)C,16.5
2,O=C1NC(=O)/C(=C\c2ccc(N3CCOCC3)o2)N1,6.82
3,O=C(NC1CCCC1)c1cc(-c2ccccc2)nc2ccccc12,5.81
4,Cc1ccc(NC(=O)Cn2cc(C=O)c3ccccc32)cc1,17.5
5,Cc1ccc2nc(SCc3nc4c(cnn4-c4ccccc4)c(=O)[nH]3)[nH]c2c1,15.3
6,Cc1cc(/C(N)=N/OC(=O)Nc2ccccc2)no1,-8.52
7,Cc1ccccc1OCC(=O)Nc1nnc(C2CCCC2)s1,19.8
8,CC(=O)NC(Cc1ccccc1)C(=O)NC(Cc1ccccc1)C(=O)O (stereo not drawn) (Ac-Phe-Phe-OH; configuration not given here),10.4
9,CCS(=O)(=O)c1ccc2oc(SCC(=O)c3c(N)n(C4CC4)c(=O)[nH]c3=O)nc2c1,23.5
10,COc1cccc(/C=N/NC(=O)C(C)n2nnc3ccccc32)c1 (stereo not drawn),-1.1
11,O=C(NC(=S)Nc1nc(-c2ccc(Cl)cc2)cs1)c1cccs1,18.7
12,O=C(NC(=S)Nc1ccccc1N1CCOCC1)c1sc2ccccc2c1Cl,0.21
13,C[C@]12C=CC(=O)C=C1CC[C@@H]1[C@@H]2[C@@H](O)C[C@@]2(C)[C@H]1CC[C@]2(O)C(=O)COC(=O)CCC(=O)NCCc1ccc(O)cc1,12.8
14,COc1ccc(NC(=O)C(Cc2ccccc2)n2cccc2)c(OC)c1 (stereo not drawn),-13.7
15,CCOC(=O)N1CCN(C(=O)C2CC(=O)N(c3ccc(OC)cc3)C2c2ccc(OC)cc2)CC1 (stereo not drawn),-13.2
16,O=C(NCCN1CCOCC1)c1cc(-c2cccc(O)c2)on1,6.99
17,Cc1ccc2c(c1)C1C=CCC1C(C(=O)NCCCN1CCOCC1)N2 (stereo not drawn),-3.91
18,CC(NC(=O)Cn1nc(C(=O)O)c2ccccc2c1=O)c1ccccc1 (stereo not drawn),-8.74
19,CCOc1ccc(CN(C)C(=O)CCNC(=O)c2ccco2)cc1,1.35
20,O=C(Nc1ncc(C(F)(F)F)cc1Cl)c1ccc(S(=O)(=O)N2CCOCC2)cc1,-13.4
21,CC(C(=O)N1CCc2ccccc21)N(C)CC(=O)Nc1ccc(F)cc1 (stereo not drawn),-47.9
22,Cc1nc2cc3c(cc2c(C)c1C(=O)OC(C)C)OCO3.Cl,-0.944

row,SMILES,"hERG current change (%, negative = inhibition) at 10uM [%]"
1,O=C(CCN1C(=O)/C(=C\c2cccc(Br)c2)SC1=S)NCCCN1CCOCC1,-63.4
2,CCC(Sc1nc2ncccc2[nH]1)C(=O)NCCc1ccccc1 (stereo not drawn),4.35
3,CC(=O)c1cccc(NC(=O)c2cccc3ccccc23)c1,-17.9
4,COc1ccc(NS(=O)(=O)c2ccc(OCC(=O)N3CCOCC3)cc2)cc1Cl,8.46
5,CCOc1ccc(/C=N/NC(=O)CNC(=O)c2ccc(S(=O)(=O)N3CCOCC3)cc2)cc1,11.7
6,O=C(NCc1ccco1)c1ccc2nc3sc4c(c3c(=O)n2c1)CCCC4,-24.1
7,COc1ccc(C2=NN(CCC(=O)NCc3cccs3)C(=O)CC2)cc1,-27.1
8,COc1ccccc1N1CCN(C(=O)Cn2ncc3c([nH]c4ccccc43)c2=O)CC1,4.74
9,CC1=C(C(=O)N(C)C)C(c2ccc(C)s2)NC(=S)N1 (stereo not drawn),12.3
10,COC(=O)N1CCN(c2ccc(C(C)=O)cc2)CC1,-17
11,CCOc1ccccc1C(=O)Nc1ccc(S(=O)(=O)N2CCN(C)CC2)cc1,1.7
12,O=c1c2ccccc2nc2n1C(CSCc1ccc(Cl)cc1Cl)CS2 (stereo not drawn),-21.8
13,O=S(=O)(Nc1cc(S(=O)(=O)N2CCOCC2)ccc1NCC1CCCO1)c1ccc(F)cc1 (stereo not drawn),-3.88
14,COc1ccc(N2CCN(CC(=O)Nc3ccc(-n4cnnn4)cc3)CC2)cc1,2.26
15,Cc1ccccc1OCCNc1ccc(C(F)(F)F)cc1[N+](=O)[O-],13.4
16,O=C(NNC(=O)c1cc2ccccc2cc1O)c1cccs1,7.2
17,CCN(Cc1nc(-c2ccc(OC)c(OC)c2)no1)C(=O)c1ccc2c(c1)OCO2,5.32
18,CC(=O)Nc1ccc(S(=O)(=O)NCC(=O)NNC(=O)c2csc(N3CCOCC3)n2)cc1,-0.267
19,O=S(=O)(c1cccs1)N1CN(Cc2ccc(Cl)cc2)c2nc3ccccc3nc21,3.75
20,Cc1nn(C(=O)c2ccco2)c(C)c1Br,12.3
21,COc1ccc(CN(C)C(=O)c2ccc(NS(=O)(=O)c3ccc(C)c([N+](=O)[O-])c3)cc2)c(OC)c1OC,-10.1
